Relative growth data for 55 compounds are collected here from the supplement of paper PMC9446081.

Among all 39,000 compounds or so, about 220 (0.56%) showed activity. The list shows a part of the results.
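Further: static incubation at 37 °C against the wild-type strain, values averaged over two biological replicates.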

The assay has as its system Escherichia coli K-12 BW25113. Kind of assay: relative growth (OD600 normalised to plate interquartile mean) (fraction); higher = less growth inhibition, active = 0.2 or less. As to conditions: 50 µM; LB; incubation time: overnight (16-24 h).
Turning to `COc1cc([C@@H]2c3cc4c(cc3[C@@H](O[C@@H]3O[C@@H]5CO[C@@H](C)O[C@H]5[C@H](O)[C@H]3O)[C@@H]3COC(=O)[C@@H]23)OCO4)cc(OC)c1O`, the relative growth was inactive: 1.01. The result for `Cc1cc(C(=O)Nc2cccc3c2O[C@H](CN(C)S(=O)(=O)c2ccccc2)[C@H](C)CN([C@@H](C)CO)C3=O)n(C)n1` reads inactive: 0.993; that for `CCOC(=O)c1nnn(-c2nonc2N)c1CN1CCSCC1`, inactive: 1.01; that for `C[C@@H]1CCCCO[C@@H](CN(C)S(=O)(=O)c2cn(C)cn2)[C@H](C)CN([C@@H](C)CO)C(=O)c2cc(NS(=O)(=O)c3cn(C)cn3)ccc2O1`, inactive: 0.992. Turning to `CC(C)NC(=O)N(C)C[C@H]1Oc2ccc(NC(=O)CCCN(C)C)cc2C(=O)N([C@@H](C)CO)C[C@@H]1C`, the relative growth is inactive: 0.972. For `COc1ccc(S(=O)(=O)N(C)C[C@H]2OCCCC[C@H](C)Oc3ccc(NC(=O)CCC(F)(F)F)cc3C(=O)N([C@H](C)CO)C[C@H]2C)cc1`, the relative growth was inactive: 1. The result for `C[C@H]1CN([C@@H](C)CO)C(=O)Cc2cc(NS(=O)(=O)c3ccc(F)cc3)ccc2O[C@@H]1CN(C)Cc1ccncc1` reads inactive: 0.99; that for `COc1ccc(S(=O)(=O)Nc2ccc3c(c2)C(=O)N([C@H](C)CO)C[C@@H](C)[C@H](CN(C)S(=O)(=O)c2cccs2)O3)cc1`, inactive: 1.01.

Turning to `C[C@H](CO)N1C[C@H](C)[C@H](CN(C)S(=O)(=O)c2cccs2)Oc2ccc(NS(=O)(=O)c3cn(C)cn3)cc2C1=O`, the relative growth was inactive: 0.993. The result for `CC(=O)NCCc1ccc(O)c(-c2c(O)c(O)c3c(c2O)C(=O)c2c(cc(O)c(C(=O)O)c2C(=O)O)C3=O)c1` reads inactive: 1.05; that for `O=C(O)CCCNC(=O)c1ccccn1`, inactive: 0.965; that for `CO[C@H]1CN(C)C(=O)c2cc(NC(=O)C3CCOCC3)ccc2OC[C@H](C)N(Cc2cccnc2)C[C@@H]1C`, inactive: 0.984.

With `C[C@@H]1CCCCO[C@@H](CN(C)C(=O)CCC(F)(F)F)[C@@H](C)CN([C@@H](C)CO)C(=O)c2cc(NS(=O)(=O)c3ccc(Cl)cc3)ccc2O1`, the relative growth is inactive: 0.981. The result for `Cc1noc(C)c1S(=O)(=O)Nc1ccc2c(c1)C(=O)N([C@@H](C)CO)C[C@H](C)[C@@H](CN(C)C(=O)Nc1ccccc1)OCCCC[C@@H](C)O2` reads inactive: 0.984; that for `COc1ccc(NC(=O)Nc2ccc3c(c2)CC(=O)N([C@@H](C)CO)C[C@H](C)[C@H](CN(C)S(=O)(=O)c2cn(C)cn2)O3)cc1`, inactive: 1.01. The result for `Cc1noc(C)c1S(=O)(=O)Nc1cccc2c1O[C@H](CN(C)S(=O)(=O)c1ccc(Cl)cc1)[C@H](C)CN([C@H](C)CO)C2=O` reads inactive: 1.02. The result for `COCCOC(=O)N1C(=O)[C@@]2(c3cc(C#CCCO)ccc31)[C@H](c1ccc(O)cc1)N1[C@H](c3ccccc3)[C@H](c3ccccc3)OC(=O)[C@H]1[C@@H]2C(=O)N1CCc2cc(OC)c(OC)cc2C1` reads inactive: 0.999; that for `COc1cc(/C=C/C(=O)O[C@H]2CC[C@]34C[C@]35CC[C@]3(C)[C@@H]([C@@H](C)CCC=C(C)C)CC[C@@]3(C)[C@@H]5CC[C@@H]4C2(C)C)ccc1O`, inactive: 0.957. On to `C[C@@H]1CCCCO[C@H](CN(C)C(=O)Nc2ccccc2)[C@H](C)CN([C@@H](C)CO)C(=O)c2cc(NS(=O)(=O)c3ccccc3)ccc2O1`, for which the relative growth was inactive: 1. The result for `C=CC[C@H](CC(=O)NCCO)C(=O)NC[C@@H](OC(=O)[C@H](CC=C)CC(=O)OC(C)(C)C)c1ccccc1` reads inactive: 0.984; that for `C[C@@H]1CN([C@@H](C)CO)C(=O)c2cc(NC(=O)c3ccccc3)ccc2O[C@@H](C)CCCCO[C@@H]1CN(C)C(=O)Nc1cccc2ccccc12`, inactive: 1.02; that for `CCC1OC(=O)C(C)C(OC2CC(C)(OC)C(O)C(C)O2)C(C)C(OC2OC(C)CC(N(C)C)C2O)C(C)(OC)CC(C)C(=O)C(C)C(O)C1(C)O` (stereo not given), inactive: 0.536. The result for `C#CCOc1ccc(-c2c(C(=O)NC3CCCCC3)oc(OC)c2S(=O)(=O)c2ccc(Cl)cc2)cc1` reads inactive: 1.02; that for `[N-]=[N+]=N[C@]1(CO)O[C@@H](n2ccc(N)nc2=O)[C@@H](O)[C@@H]1O`, inactive: 1.02. On to `CC(=O)OCC(=O)C1(O)CCC2C3CCC4=CC(=O)CCC4(C)C3(F)C(O)CC21C` (stereo not given), for which the relative growth was inactive: 1.11. The result for `O=C(C[C@H]1CC[C@@H]2[C@H](COC[C@@H](O)CN2C(=O)Nc2cccc(F)c2)O1)NCc1ccccc1Cl` reads inactive: 0.987.

As to `C[C@H](CO)N1C[C@H](C)[C@H](CN(C)Cc2ccc(Cl)c(Cl)c2)Oc2ccc(NC(=O)Nc3ccc(F)cc3)cc2C1=O`, the relative growth is inactive: 1.01. The result for `C[C@H]1CCCCO[C@@H](CN(C)C(=O)C2CCCCC2)[C@@H](C)CN([C@@H](C)CO)C(=O)c2cc(NS(=O)(=O)c3ccccc3)ccc2O1` reads inactive: 1.03; that for `O=C(C[C@@H]1CC=CCCC(=O)OC[C@H](Cc2c[nH]c3ccccc23)NC1=O)N[C@H](CO)Cc1ccccc1`, inactive: 0.985. Regarding `Cc1noc(C)c1S(=O)(=O)N(C)C[C@H]1Oc2c(NC(=O)C3CC3)cccc2C(=O)N([C@@H](C)CO)C[C@H]1C`, the relative growth is inactive: 1.01.

For the compound `C[C@@H]1CN([C@H](C)CO)C(=O)c2cc(NS(=O)(=O)c3cccs3)ccc2O[C@@H](C)CCCCO[C@@H]1CN(C)C(=O)NC1CCCCC1`, the relative growth is inactive: 1. For `C[C@@H]1CN([C@H](C)CO)C(=O)c2ccccc2-c2ccccc2CO[C@@H]1CN(C)Cc1ccc(C(F)(F)F)cc1`, the relative growth was inactive: 0.992. The result for `C[C@H](CO)N1C[C@H](C)[C@@H](CN(C)S(C)(=O)=O)Oc2ccc(NS(=O)(=O)c3cn(C)cn3)cc2CC1=O` reads inactive: 0.999; that for `C[N+](C)(C)CCCCNC(=O)[C@H]1C[C@H]2C(=O)N[C@@H](Cc3ccccc3)C(=O)N2[C@H]1c1cccc(OCCO)c1`, inactive: 1.02; that for `C[C@@H]1CCCCO[C@H](CN(C)S(=O)(=O)c2cn(C)cn2)[C@@H](C)CN([C@H](C)CO)C(=O)c2cc(NS(=O)(=O)c3cn(C)cn3)ccc2O1`, inactive: 0.972.

With `C[C@@H]1CN([C@H](C)CO)C(=O)c2cc(NS(=O)(=O)c3ccccc3)ccc2O[C@@H](C)CCCCO[C@@H]1CN(C)S(C)(=O)=O`, the relative growth was inactive: 0.995.

On to `C[C@H]1CCCCO[C@H](CN(C)CC2CCCCC2)[C@@H](C)CN([C@@H](C)CO)C(=O)c2cc(NC(=O)Nc3ccc4c(c3)OCO4)ccc2O1`, for which the relative growth is inactive: 0.868. As to `COc1ccc2c3c([nH]c2c1)[C@H](CO)N(C[C@]13CCN(CC1)CC1CCCCC1)C(=O)Nc1c(noc1C)C`, the relative growth is inactive: 1.01.

`C[C@H](CO)N1C[C@H](C)[C@@H](CN(C)Cc2ccccc2)OCCCC[C@H](C)Oc2ccc(NC(=O)C3CCCCC3)cc2C1=O`: the relative growth was inactive: 1.01. The result for `C[C@@H]1CN([C@@H](C)CO)C(=O)Cc2cc(NS(=O)(=O)c3ccc(Cl)cc3)ccc2O[C@H]1CN(C)Cc1ccc(C(=O)Nc2ccccc2N)cc1` reads inactive: 1.01; that for `COc1ccc([Si](C)(C)[C@H]2[C@H](CCOC(=O)NCCCCCC(=O)NO)O[C@@]3(C(=O)N(Cc4ccccc4)c4ccc(I)cc43)[C@@H]2C)cc1`, inactive: 1.01; that for `CN1C(=O)c2cc(NC(=O)C3CCOCC3)ccc2OC[C@H]2O[C@@H](CC(=O)NCc3ccc4c(c3)OCO4)CC[C@H]21`, inactive: 0.999.

Turning to `Cc1noc(C)c1S(=O)(=O)N(C)C[C@@H]1OCCCC[C@H](C)Oc2ccc(NS(C)(=O)=O)cc2C(=O)N([C@H](C)CO)C[C@H]1C`, the relative growth was inactive: 0.987. For `C[C@H]1CN([C@@H](C)CO)C(=O)c2cccc(NC(=O)c3ccncc3)c2O[C@@H]1CN(C)S(=O)(=O)c1ccccc1`, the relative growth is inactive: 1.01.

As to `C[C@@H]1CN([C@H](C)CO)C(=O)c2c(c3ccccc3n2C)-c2ccccc2CO[C@H]1CN(C)Cc1cccc2c1OCCCO2`, the relative growth was inactive: 1.01. As for `C[C@H](CO)N1C[C@H](C)[C@H](CN(C)Cc2ccc(C(=O)Nc3ccccc3N)cc2)Oc2ccc(NC(=O)NC3CCCCC3)cc2C1=O`, the relative growth was inactive: 0.996.

Take `C[C@@H]1CCCCO[C@@H](CN(C)C(=O)Nc2ccc(C(F)(F)F)cc2)[C@H](C)CN([C@H](C)CO)C(=O)c2cc(NC(=O)c3ccncc3)ccc2O1`: the relative growth is inactive: 0.902. The result for `COc1cc(C[C@H]2CO[C@H](c3ccc(O)c(OC)c3)[C@@H]2CO[C@H]2O[C@@H](CO)[C@@H](O)[C@@H](O)[C@@H]2O)ccc1O` reads inactive: 0.946; that for `O=C(C[C@@H]1C[C@H]2c3cc(NC(=O)Nc4ccc(C(F)(F)F)cc4)ccc3O[C@H]2[C@@H](CO)O1)NCCc1ccccc1`, inactive: 1.02.

Take `C[C@H]1CCCCO[C@@H](CN(C)C(=O)c2ccncc2)[C@@H](C)CN([C@@H](C)CO)C(=O)c2cc(NC(=O)C3CCCCC3)ccc2O1`: the relative growth was inactive: 1.04. The result for `C[C@@H]1CN([C@H](C)CO)C(=O)c2cc(C#CC3(O)CCCC3)cnc2O[C@@H]1CN(C)S(=O)(=O)c1ccccc1` reads inactive: 0.978; that for `CC(C)=CC[N+]1(C)CCCCC1`, inactive: 0.999; that for `CC(C)NC(=O)Nc1cccc2c1O[C@H](CN(C)S(=O)(=O)c1ccc(Cl)cc1)[C@@H](C)CN([C@H](C)CO)C2=O`, inactive: 0.92. The result for `CCCC#Cc1ccc2c(c1)O[C@@H](CN(C)C(=O)c1cnccn1)[C@@H](C)CN([C@H](C)CO)S2(=O)=O` reads inactive: 0.971; that for `C[C@H]1CN([C@@H](C)CO)C(=O)c2cccc(NC(=O)Nc3ccc(C(F)(F)F)cc3)c2O[C@H]1CN(C)Cc1ccccc1`, inactive: 0.977.
